# Measurements as given in publication PMC12820563, “FoxP3 forms a head-to-head dimer in vivo and stabilizes its multimerization on adjacent microsatellites”.
# Some of the results follow.
# Molecular target: T1, MBP-FoxP1dN (Mus musculus, UniProt P58462 326-579)
# T1 sequence: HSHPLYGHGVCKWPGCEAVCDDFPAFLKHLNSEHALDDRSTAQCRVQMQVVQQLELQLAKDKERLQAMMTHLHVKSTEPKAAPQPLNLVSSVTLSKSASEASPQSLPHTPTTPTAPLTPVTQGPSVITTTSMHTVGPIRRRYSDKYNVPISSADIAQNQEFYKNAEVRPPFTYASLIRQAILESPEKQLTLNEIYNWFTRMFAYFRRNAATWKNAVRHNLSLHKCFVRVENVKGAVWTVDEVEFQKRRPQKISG
# Experiment: PD-seq (MBP pull-down with sequencing); 20 mM Tris-HCl pH 7.5, 100 mM NaCl, 1.5 mM MgCl2, 0.4 uM protein, 0.1 uM dsDNA library, 30 min, room temperature, amylose pull-down; high values mean tight binding
# Details: protein: recombinant; tags: His6-MBP; chain copies: 2; dsDNA, one strand shown
# How it was run: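 Protein and DNA were mixed at 0.4 µM and 0.1 µM and held for 30 min at room temperature in Tris pH 7.5 buffer with NaCl and MgCl2; the protein was a His6-MBP-tagged, N-terminally truncated mouse FoxP3 or FoxP1 fragment from E. coli, and the DNA a Klenow-filled double-stranded degenerate library. Amylose resin captured the complexes, which were washed three times. Binding is read as reads-per-million enrichment of pull-down versus input after Illumina sequencing, with replicates pooled.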
row,Sequence,binding signal
1,GATGATTGTTCTCCCAGCTGATGAATTTTGCCACTCGAGTAAACAAATTTTCCTAATCTTTCTGTTCAAGCGCCATCTAC,1.03 RPM ratio (pull-down/input)
2,GATGATTGTTCTCCCAGCTGATGAATTACAACCCTCGAGTAAACAAATTTTCCTAATCTTTCTGTTCAAGCGCCATCTAC,1.18 RPM ratio (pull-down/input)
3,GATGATTGTTCTCCCAGCTGATGAATTTCTACTGTCGAGTAAACAAATTTTCCTAATCTTTCTGTTCAAGCGCCATCTAC,0.83 RPM ratio (pull-down/input)
4,GATGATTGTTCTCCCAGCTGATGAATTAAGGTATTCGAGTAAACAAATTTTCCTAATCTTTCTGTTCAAGCGCCATCTAC,1.03 RPM ratio (pull-down/input)
5,GATGATTGTTCTCCCAGCTGATGAATTCCCAATGTCGAGTAAACAAATTTTCCTAATCTTTCTGTTCAAGCGCCATCTAC,0.873 RPM ratio (pull-down/input)
6,GATGATTGTTCTCCCAGCTGATGAATTCGAATTTTCGAGTAAACAAATTTTCCTAATCTTTCTGTTCAAGCGCCATCTAC,0.906 RPM ratio (pull-down/input)
7,GATGATTGTTCTCCCAGCTGATGAATTAGCGTGGTCGAGTAAACAAATTTTCCTAATCTTTCTGTTCAAGCGCCATCTAC,0.933 RPM ratio (pull-down/input)
8,GATGATTGTTCTCCCAGCTGATGAATTATCCGACTCGAGTAAACAAATTTTCCTAATCTTTCTGTTCAAGCGCCATCTAC,0.935 RPM ratio (pull-down/input)
9,GATGATTGTTCTCCCAGCTGATGAATTCTGACATTCGAGTAAACAAATTTTCCTAATCTTTCTGTTCAAGCGCCATCTAC,0.898 RPM ratio (pull-down/input)
10,GATGATTGTTCTCCCAGCTGATGAATTGTCATCGTCGAGTAAACAAATTTTCCTAATCTTTCTGTTCAAGCGCCATCTAC,1.06 RPM ratio (pull-down/input)
11,GATGATTGTTCTCCCAGCTGATGAATTACCGCGCTCGAGTAAACAAATTTTCCTAATCTTTCTGTTCAAGCGCCATCTAC,0.948 RPM ratio (pull-down/input)
12,GATGATTGTTCTCCCAGCTGATGAATTACTATTTTCGAGTAAACAAATTTTCCTAATCTTTCTGTTCAAGCGCCATCTAC,2.29 RPM ratio (pull-down/input)
13,GATGATTGTTCTCCCAGCTGATGAATTCTGTTGTTCGAGTAAACAAATTTTCCTAATCTTTCTGTTCAAGCGCCATCTAC,2.6 RPM ratio (pull-down/input)
14,GATGATTGTTCTCCCAGCTGATGAATTGAACGTTTCGAGTAAACAAATTTTCCTAATCTTTCTGTTCAAGCGCCATCTAC,0.869 RPM ratio (pull-down/input)
15,GATGATTGTTCTCCCAGCTGATGAATTAAGATCATCGAGTAAACAAATTTTCCTAATCTTTCTGTTCAAGCGCCATCTAC,0.95 RPM ratio (pull-down/input)
16,GATGATTGTTCTCCCAGCTGATGAATTATAATAGTCGAGTAAACAAATTTTCCTAATCTTTCTGTTCAAGCGCCATCTAC,0.964 RPM ratio (pull-down/input)

row,Sequence,binding signal
1,GATGATTGTTCTCCCAGCTGATGAATTACCTTGATCGAGTAAACAAATTTTCCTAATCTTTCTGTTCAAGCGCCATCTAC,0.961 RPM ratio (pull-down/input)
2,GATGATTGTTCTCCCAGCTGATGAATTCTATTGGTCGAGTAAACAAATTTTCCTAATCTTTCTGTTCAAGCGCCATCTAC,1.41 RPM ratio (pull-down/input)
3,GATGATTGTTCTCCCAGCTGATGAATTAACAGTCTCGAGTAAACAAATTTTCCTAATCTTTCTGTTCAAGCGCCATCTAC,0.897 RPM ratio (pull-down/input)
4,GATGATTGTTCTCCCAGCTGATGAATTCATAACTTCGAGTAAACAAATTTTCCTAATCTTTCTGTTCAAGCGCCATCTAC,0.954 RPM ratio (pull-down/input)
5,GATGATTGTTCTCCCAGCTGATGAATTAAGGTCGTCGAGTAAACAAATTTTCCTAATCTTTCTGTTCAAGCGCCATCTAC,0.883 RPM ratio (pull-down/input)
6,GATGATTGTTCTCCCAGCTGATGAATTGTGATCATCGAGTAAACAAATTTTCCTAATCTTTCTGTTCAAGCGCCATCTAC,1.28 RPM ratio (pull-down/input)
7,GATGATTGTTCTCCCAGCTGATGAATTGAAGGCCTCGAGTAAACAAATTTTCCTAATCTTTCTGTTCAAGCGCCATCTAC,0.872 RPM ratio (pull-down/input)
8,GATGATTGTTCTCCCAGCTGATGAATTCATCTGGTCGAGTAAACAAATTTTCCTAATCTTTCTGTTCAAGCGCCATCTAC,0.892 RPM ratio (pull-down/input)
9,GATGATTGTTCTCCCAGCTGATGAATTATTCAGCTCGAGTAAACAAATTTTCCTAATCTTTCTGTTCAAGCGCCATCTAC,0.962 RPM ratio (pull-down/input)
10,GATGATTGTTCTCCCAGCTGATGAATTGTCTAGCTCGAGTAAACAAATTTTCCTAATCTTTCTGTTCAAGCGCCATCTAC,0.969 RPM ratio (pull-down/input)
11,GATGATTGTTCTCCCAGCTGATGAATTATAGTCGTCGAGTAAACAAATTTTCCTAATCTTTCTGTTCAAGCGCCATCTAC,0.926 RPM ratio (pull-down/input)
12,GATGATTGTTCTCCCAGCTGATGAATTTTGGGGGTCGAGTAAACAAATTTTCCTAATCTTTCTGTTCAAGCGCCATCTAC,0.764 RPM ratio (pull-down/input)
13,GATGATTGTTCTCCCAGCTGATGAATTAAGCGCGTCGAGTAAACAAATTTTCCTAATCTTTCTGTTCAAGCGCCATCTAC,0.993 RPM ratio (pull-down/input)
14,GATGATTGTTCTCCCAGCTGATGAATTGAAGTCGTCGAGTAAACAAATTTTCCTAATCTTTCTGTTCAAGCGCCATCTAC,0.782 RPM ratio (pull-down/input)
15,GATGATTGTTCTCCCAGCTGATGAATTGAGTGCATCGAGTAAACAAATTTTCCTAATCTTTCTGTTCAAGCGCCATCTAC,1.33 RPM ratio (pull-down/input)
16,GATGATTGTTCTCCCAGCTGATGAATTGAGGAGGTCGAGTAAACAAATTTTCCTAATCTTTCTGTTCAAGCGCCATCTAC,0.749 RPM ratio (pull-down/input)
